The data scatter; read single values as rough.
B1: Ydj1; a variant is named by its letters at X, in order (parent)
chain: MVKETKFYDILGVPVTATDVEIKKAYRKCALKYHPDKNPSEEAAEKFKEASAAYEILSDPEKRDIYDQFGEDGLSGAGGAGGFPGGGFGFGDDIFSQFFGAGGAQRPRGPQRGKDIKHEISASLEELYKGRTAKLALNKQILCKECEGRGGKKGAVKKCTSCNGQGIKFVTRQMGPMIQRFQTECDVCHGTGDIIDPKDRCKSCNGKKVENERKILEVHVEPGMKDGQRIVFKGEADQAPDVIPGDVVFIVSERPHKSFKRDGDDLVYEAEIDLLTAIAGGEFALEHVSGDWLKVGIVPGEVIAPGMRKVIEGKGMPIPKYGGYGNLIIKFTIKFPENHFTSEENLKKLEEILPPRIVPAIPKKATVDECVLADFDPAKYNRTRASRGGANYDSDEEEQGGEGVQCXXX

Variants of: B1
Assay: enrichment factor, frequency at 37 °C / frequency at 25 °C (thermotolerance selection) (ratio); higher = more growth at 37 °C, higher likelihood of farnesylation
Conditions: with Saccharomyces cerevisiae ydj1Δ (yWS304); selective temperature 37 °C; reference temperature 25 °C
Experimental: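 Pooled library of all 8,000 Ydj1-CXXX C-terminal motif variants (native CASQ replaced by C + three variable residues, one codon per amino acid) expressed from a CEN plasmid in S. cerevisiae ydj1Δ (yWS304). The library was grown in SC-Ura liquid to A600 ~2 (~8 generations) at permissive 25 °C or selective 37 °C. Reads from 8 and 7 replicates were pooled and variants counted by NGS. Enrichment factor = frequency at 37 °C / frequency at 25 °C, with a +1 correction; it reports Ydj1-dependent thermotolerance, used as a read-out of farnesylation by yeast FTase.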

Variant	enrichment factor
KKI	0.11
LKI	0.136
MKI	0.157
NKI	0.134
PKI	0.211
QKI	0.212
CKI	0.47
RKI	0.113
SKI	0.152
TKI	0.0837
VKI	0.168
WKI	1.09
YKI	0.303
DKI	0.17
EKK	0.0804
AKK	0.255
FKK	0.187
GKK	0.0819
HKK	0.219
IKK	0.113
KKK	0.339

Variant	enrichment factor
LKK	0.188
MKK	0.0626
NKK	0.262
PKK	0.0982
QKK	0.165
CKK	0.0568
RKK	0.0945
SKK	0.0914
TKK	0.13
VKK	0.0945
WKK	0.0688
YKK	0.11
DKK	0.056
EKL	0.107
AKL	0.152
FKL	0.521
GKL	0.124
HKL	0.158
IKL	0.297
KKL	0.18
LKL	0.369

Variant	enrichment factor
MKL	0.146
NKL	0.156
PKL	0.151
QKL	0.129
CKL	0.223
RKL	0.11
SKL	0.253
TKL	0.198
VKL	0.0891
WKL	0.954
YKL	0.175
DKL	0.115
EKM	0.29
AKM	1.21
FKM	1.33
GKM	0.116
HKM	0.469
IKM	0.94
KKM	0.145
LKM	0.747
MKM	0.247

Variant	enrichment factor
NKM	0.178
PKM	0.3
QKM	0.224
CKM	1.11
RKM	0.688
SKM	0.234
TKM	0.636
VKM	1.67
WKM	1.16
YKM	0.71
DKM	0.179
EKN	0.257
AKN	0.22
FKN	1.08
GKN	0.153
HKN	0.0822
IKN	0.108
KKN	0.149
LKN	0.229
MKN	0.178

Reference: the supplement of paper PMC10320760
